From publication PMC4336329 (PLoS ONE, 2015)
The whole screen tested about 310,000 compounds, of which about 2,200 (0.71%) showed an effect of 50% or more. Effects have a minus sign here. The list shows a part of the results.

biological target: human ether-à-go-go-related gene (hERG) potassium channel (human, UniProt Q12809); assay: primary screen, population patch clamp on CHO cells stably expressing hERG
Sequence (Q12809 whole entry, looked up): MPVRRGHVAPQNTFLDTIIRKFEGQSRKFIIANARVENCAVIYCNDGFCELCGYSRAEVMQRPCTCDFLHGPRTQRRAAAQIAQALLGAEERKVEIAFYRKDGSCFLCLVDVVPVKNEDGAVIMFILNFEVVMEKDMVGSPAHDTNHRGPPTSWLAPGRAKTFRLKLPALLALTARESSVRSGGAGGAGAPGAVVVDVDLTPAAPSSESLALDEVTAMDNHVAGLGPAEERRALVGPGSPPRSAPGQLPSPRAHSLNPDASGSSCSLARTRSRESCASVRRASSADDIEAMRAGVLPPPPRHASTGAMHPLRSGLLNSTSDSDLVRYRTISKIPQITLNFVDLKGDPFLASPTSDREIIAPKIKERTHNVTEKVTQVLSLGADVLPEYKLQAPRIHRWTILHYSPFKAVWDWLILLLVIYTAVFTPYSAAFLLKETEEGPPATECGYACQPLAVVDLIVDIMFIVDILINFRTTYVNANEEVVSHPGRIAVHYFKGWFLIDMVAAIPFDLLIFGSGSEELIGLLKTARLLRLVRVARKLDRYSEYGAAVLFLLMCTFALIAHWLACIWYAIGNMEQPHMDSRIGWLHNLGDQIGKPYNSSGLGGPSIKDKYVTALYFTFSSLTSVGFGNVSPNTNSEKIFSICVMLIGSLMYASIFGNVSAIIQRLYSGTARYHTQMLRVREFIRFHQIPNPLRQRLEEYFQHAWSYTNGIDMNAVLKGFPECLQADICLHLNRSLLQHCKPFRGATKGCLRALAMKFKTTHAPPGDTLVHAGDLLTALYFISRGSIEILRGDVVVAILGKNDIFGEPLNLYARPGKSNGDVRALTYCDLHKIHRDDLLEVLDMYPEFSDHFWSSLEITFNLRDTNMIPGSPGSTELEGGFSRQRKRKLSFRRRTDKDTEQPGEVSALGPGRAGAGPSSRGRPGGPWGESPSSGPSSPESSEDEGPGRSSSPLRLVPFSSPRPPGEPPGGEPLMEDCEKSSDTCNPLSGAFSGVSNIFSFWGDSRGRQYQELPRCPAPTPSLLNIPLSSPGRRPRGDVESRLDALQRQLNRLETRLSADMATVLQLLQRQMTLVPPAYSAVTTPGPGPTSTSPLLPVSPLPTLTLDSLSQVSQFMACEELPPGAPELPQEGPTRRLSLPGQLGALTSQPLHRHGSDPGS

SMILES | hERG current change (%, negative = inhibition) at 1uM [%]
CCOC(=O)C1=C(C)Nc2ccccc2N=C1NC(=O)C(c1ccccc1)c1ccccc1 | 10.8
COc1ccc(C(=O)C2CCCN(C(=O)/C=C/c3cnc[nH]3)C2)c(C)c1 (centres unmarked) | 15.2
CCOc1cc(CNCCc2c[nH]c3ccccc23)cc(Cl)c1OCC | 8.88
Cc1[nH]c2ccccc2c1C1=CCNCC1 | 3.85
Cc1ccc(S(=O)(=O)N(C)Cc2ccc(-c3nnc4n3CCC4)cc2)cc1 | 0.889
COc1cc(OC)c2c(-c3ccccc3)cc(=O)oc2c1C(CCN1CCCC(C)C1)c1ccc2c(c1)OCO2 (centres unmarked) | 10.4
O=C(COc1ccccc1F)Nc1cc(S(=O)(=O)N2CCOCC2)ccc1N1CCOCC1 | 5.08
CCC(CC)C(=O)c1c[nH]c(C(=O)NCC2CCCO2)c1 (centres unmarked) | 6.11
CC(C)c1cccc(OCCN2CCCC2)c1 | 11.7
Cc1nc2nc(SCC(=O)NCCN3CCOCC3)nn2c(C)c1Cc1ccccc1 | 12.3
COc1ccccc1C(=O)N1C(CC(=O)Nc2ccccc2C)C(=O)NC2CCCCC21 (centres unmarked) | 13.1
O=C(O)C(=O)O.O=C(c1ccccc1F)N1CCN(C2CCC(c3ccccc3)CC2)CC1 (centres unmarked) | -0.839
CC(=O)c1cc(C)ccc1OC(=O)CN1C(=O)c2ccccc2C1=O | 18.6
COc1ccc(N2CCN(C(=O)COC(=O)c3ccc(CSC)o3)CC2)cc1 | -4.64
CCCCNS(=O)(=O)c1ccc(NC(=O)C2c3ccccc3Oc3ccccc32)cc1 | 8.23
Cl.Fc1ccccc1N1CCN(C(c2cccs2)c2nnnn2CCc2ccccc2)CC1 (centres unmarked) | 10.2
CNC(=O)COc1coc(CN2CCN(Cc3ccccc3)CC2)cc1=O | 8.11
CC(C)(Oc1ccc(Cl)cc1)C(=O)NC1CCCCC1 | 5.45
Cn1c(O)c(C(=Nc2ccc(F)cc2)c2ccccc2)c(=O)n(C)c1=O | 7.7
O=C(c1ccco1)N1CCN(C(=O)c2ccccc2[N+](=O)[O-])CC1 | 12.7
CS(=O)(=O)c1ccc(C(=O)Nc2cc(S(C)(=O)=O)ccc2Cl)cc1 | 13.1
Cc1cccc(Cn2nnc3c2C(=O)c2ccccc2C3=O)c1 | 21.5
Cc1nn(C(C)(C)C)c(NC(=O)c2ccc(Cl)cc2)c1Br | 9.25

SMILES | hERG current change (%, negative = inhibition) at 1uM [%]
Cc1nccn1CC(=O)N/N=C/c1cccc(O)c1 | 20.6
Cc1ccc(NC(=O)c2ccc(Cl)c(S(=O)(=O)NCC3CCCO3)c2)c(O)c1 (centres unmarked) | 9.14
COC(=O)CSC(=S)N1CCCC(C)C1 (centres unmarked) | 6.18
COc1ccc(OC)c(NC(=O)Nc2cccc3ccccc23)c1 | 9.59
CCn1c2ccccc2c2nnc(SCC(=O)Nc3ccc4c(c3)OCO4)nc21 | 10.8
O=C(/C=C/c1ccccc1)NCCSCc1ccccc1 | 5.07
Cc1ccc(Nc2nc(N)c([N+](=O)[O-])c(N3CCOCC3)n2)cc1 | 5.55
Cc1cccc(OC(=O)c2ccncc2)c1C | 10.5
C=CCOC(=O)C1=C(C)NC(SCC(=O)NC(=O)OCC)=C(C#N)C1c1cccnc1 (centres unmarked) | 7.17
CC1(C)Cc2c(sc3nc(N/N=C/c4ccccc4)[nH]c(=O)c23)CO1 | 8.46
COc1ccc(CN2C(=O)c3cccnc3C2=O)cc1S(=O)(=O)NCc1ccc(C)cc1 | 12.6
N#Cc1c(NC(=O)CSc2nnc(-c3ccco3)n2-c2ccccc2)sc2c1CCC2 | 0.511
Clc1ccc(COc2ccccn2)c(Cl)c1 | 7.33
CCOC(=O)CC1C(=O)NCCN1C(=O)c1ccc(Cl)cc1 (centres unmarked) | 9.74
Cc1ccc(S(=O)(=O)N(CC(=O)Nc2cccnc2)c2ccc(Br)cc2)cc1 | -6.71
COC(=O)CNC(=O)COC(=O)c1ccc(OC)c([N+](=O)[O-])c1 | 14.4
Cc1ccc2oc(=O)c3cc(C(=O)N4CCN(C(=O)c5ccco5)CC4)sc3c2c1 | -17.4
C[C@H](NC(=O)c1nc[nH]c1C(=O)N1CCN(C(=O)OC(C)(C)C)CC1)C(=O)OCc1ccccc1 | -0.216
CCN1CCN(CCCNC(=O)CCCn2nc(C)c3sc4ccccc4c3c2=O)CC1 | 17.4
COCCSc1nnc(NC(=O)Cc2ccc(OC)cc2)s1 | 13.7
COc1ccc(-c2noc(C(C)n3nc(C)c([N+](=O)[O-])c3C)n2)cc1OC (centres unmarked) | 8.63
CC(C)c1ccc(O)c(NC(=O)c2cncc(Br)c2)c1 | 0.77
COC(=O)Nc1nnc(/C=C/c2ccc(OC)cc2)s1 | -1.57

SMILES | hERG current change (%, negative = inhibition) at 1uM [%]
Cc1ccc(NC(=O)CN(C)C(=O)c2ccc(NS(=O)(=O)c3ccc4[nH]c(=O)[nH]c4c3)cc2)cc1 | -4.52
Cc1cc(C)nc(SCc2nnc(SCC#N)n2-c2cccc(Cl)c2)n1 | 3.2
O=C(COC(=O)c1cccc(Br)c1)Nc1cccc2c1C(=O)c1ccccc1C2=O | 8.3
COc1ccccc1-n1c(SCC(=O)NC2CCCC2)nc2cccnc21 | 8.49
CCCOc1ccc(CC(=O)NNC(=S)Nc2ccccc2)cc1Br | 12.5
CC(=O)c1sc2nc(-c3cccs3)ccc2c1N | 14.2
CC1(C)Cc2c(c(=S)nc(-c3ccccc3)n2Cc2cccnc2)CO1 | 11.3
COc1ccc(CN2CCNC(=O)C2CC(=O)NC2CCOCC2)c(F)c1 (centres unmarked) | 0.0127
Cc1cc(=O)n(-c2ccc(O)cc2)[nH]1 | 2.58
CCOC(=O)c1sc(=S)n(-c2ccccc2)c1N | -1.76
COc1ccc(CC(NC(C)=O)C(=O)NC2CCN(C(=O)Nc3ccccc3C)CC2)cc1OC (centres unmarked) | 11.2
CCSc1nc(-c2ccccc2)cc(=O)[nH]1 | 7.5
COc1ccccc1CNCCc1ccc(F)cc1.O=C(O)C(=O)O | 0.243
CC1(N(O)C=C2C=CC(=O)C=C2)CCCCC1=O (centres unmarked) | 2.49
COc1ccccc1C1CC(c2ccco2)=NN1S(C)(=O)=O (centres unmarked) | 8.44
CCC(C)(NC(=O)Cc1c[nH]c2ccccc12)C(=O)NC1CCCCC1 (centres unmarked) | 1.82
Cc1ccc(S(=O)(=O)/N=C(\Nc2cccc(C)c2)Nc2nc(C)cc(C)n2)cc1 | 13.8
Br.Cc1ccc(C)c(C(=O)CN2C3=NCCCN3c3ccccc32)c1 | -43
O=C1NC(=O)N(CCNc2ncc(C(F)(F)F)cc2Cl)C(=O)C1/C=N/OCc1c(F)cccc1Cl (centres unmarked) | 7.62
CN(Cc1ccc(F)cc1Cl)S(=O)(=O)c1cccs1 | 4.71
Cc1nn(-c2ccccc2[N+](=O)[O-])c(=O)c2ccccc12 | 6.64
O=C(Nc1ncccc1O)c1ccc2c(c1)OCO2 | 8.92
CCc1nn(CC(=O)NCCCN(C)C2CCCCC2)c(=O)c2cc3occc3n12 | 2.42

SMILES | hERG current change (%, negative = inhibition) at 1uM [%]
COc1c(CC=C(C)C)c(O)cc2oc(=O)c3c4ccc(O)cc4oc3c12 | 8.73
NNC(=O)C1COc2cc3ccccc3cc2O1 (centres unmarked) | 16.3
CCOC(=O)c1ccc(NC(=S)NN)cc1 | 6.56
Cc1cc(Cn2nc(-c3ccccc3)cc2C(=O)NCc2cccs2)on1 | 4
Cc1cc2nnc(SCC(=O)Nc3ccc(Cl)cc3)n2c(N)n1 | 6.02
CCOCC(O)CNC(=O)c1ccc2nc(Cc3ccc(OC)c(OC)c3)oc2c1 (centres unmarked) | 13.9
CN(C)C(=O)COC(=O)c1ccccc1OCC(=O)Nc1ccc(SC(F)F)cc1 | -7.39
O=C(NCc1nnnn1-c1ccc(F)c(F)c1)c1ccc2ccccc2c1 | 0.216
COc1ccc(-n2c(=O)c3c4c(sc3n(CC(=O)Nc3cc(C)[nH]n3)c2=O)CCC4)c(OC)c1 | 13.7
Cn1c(N)c(C(=O)COC(=O)CCC(=O)c2ccc(F)cc2)c(=O)n(C)c1=O | 5.29
CCCC(=O)N(Cc1cc(=O)[nH]c2ccccc12)c1ccccc1OC | -3.28
CCNc1ccccc(-c2ccc3ccccc3n2)c1=O | 12
COc1ccc2oc(C(=O)OCC(=O)N3CC(C)OC(C)C3)c(C)c2c1 (centres unmarked) | 7.82
O=C(Nc1cccc2ccccc12)N1CCC2(CC1)OCCO2 | 17.9
COc1ccc(/C(C)=N/Nc2cc(C(F)(F)F)ccc2Cl)c(OC)c1 | 4.07
O=c1c2c3c(sc2nc2n1CCCC2)CCC3 | 3.46
CC(C)Cc1nccs1 | 17.5
CSc1nc(C=Nc2ccccc2Cl)c(O)n1Cc1cccc(Cl)c1 | 11.9
CCOC(=O)c1cn(Cc2ccc(C)cc2)nn1 | 16.4
CO/N=C/c1c(C(=O)OC)nn(-c2ccccc2)c1Cl | 17.4
